In paper PMC9911399, “Two distinct binding modes provide the RNA-binding protein RbFox with extraordinary sequence specificity”:
Substitutions are numbered along the chain they refer to; changes in the protein carry UniProt numbers. This is one part of the list.

T1: RBFOX1 RRM (Homo sapiens, UniProt Q9NWB1 109-208)
T1 sequence: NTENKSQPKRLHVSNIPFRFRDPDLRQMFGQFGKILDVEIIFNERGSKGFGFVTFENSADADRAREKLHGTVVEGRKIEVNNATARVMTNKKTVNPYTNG

B1: GUCGAGC (DNA:RNA)
RNA: GGGAGACCGGAAUUCAGAUUGUCCGUCGAGCUUAAAUCCCGUCGUAGCCACCA
DNA 1: CAATCTGAATTCCGGTCTCCC
DNA 2: TGGTGGCTACGACGGGATT
B2: GCGUGCA (DNA:RNA)
RNA: B1 RNA with U26C, C27G, G28U, A29G, G30C, C31A
DNA 1: CAATCTGAATTCCGGTCTCCC
DNA 2: TGGTGGCTACGACGGGATT
B3: GAUGGGG (DNA:RNA)
RNA: B1 RNA with U26A, C27U, A29G, C31G
DNA 1: CAATCTGAATTCCGGTCTCCC
DNA 2: TGGTGGCTACGACGGGATT
B4: UAUAGGG (DNA:RNA)
RNA: B1 RNA with G25U, U26A, C27U, G28A, A29G, C31G
DNA 1: CAATCTGAATTCCGGTCTCCC
DNA 2: TGGTGGCTACGACGGGATT
B5: AGCAAUG (DNA:RNA)
RNA: B1 RNA with G25A, U26G, G28A, G30U, C31G
DNA 1: CAATCTGAATTCCGGTCTCCC
DNA 2: TGGTGGCTACGACGGGATT
B6: ACCGUAU (DNA:RNA)
RNA: B1 RNA with G25A, U26C, A29U, G30A, C31U
DNA 1: CAATCTGAATTCCGGTCTCCC
DNA 2: TGGTGGCTACGACGGGATT
B7: GGGGCUU (DNA:RNA)
RNA: B1 RNA with U26G, C27G, A29C, G30U, C31U
DNA 1: CAATCTGAATTCCGGTCTCCC
DNA 2: TGGTGGCTACGACGGGATT
B8: AGAGUCA (DNA:RNA)
RNA: B1 RNA with G25A, U26G, C27A, A29U, G30C, C31A
DNA 1: CAATCTGAATTCCGGTCTCCC
DNA 2: TGGTGGCTACGACGGGATT
B9: GAGUGGC (DNA:RNA)
RNA: B1 RNA with U26A, C27G, G28U, A29G
DNA 1: CAATCTGAATTCCGGTCTCCC
DNA 2: TGGTGGCTACGACGGGATT
B10: UGCGACU (DNA:RNA)
RNA: B1 RNA with G25U, U26G, G30C, C31U
DNA 1: CAATCTGAATTCCGGTCTCCC
DNA 2: TGGTGGCTACGACGGGATT
B11: AGAUGGC (DNA:RNA)
RNA: B1 RNA with G25A, U26G, C27A, G28U, A29G
DNA 1: CAATCTGAATTCCGGTCTCCC
DNA 2: TGGTGGCTACGACGGGATT
B12: ACUUUGA (DNA:RNA)
RNA: B1 RNA with G25A, U26C, C27U, G28U, A29U, C31A
DNA 1: CAATCTGAATTCCGGTCTCCC
DNA 2: TGGTGGCTACGACGGGATT
B13: AGCUGUG (DNA:RNA)
RNA: B1 RNA with G25A, U26G, G28U, A29G, G30U, C31G
DNA 1: CAATCTGAATTCCGGTCTCCC
DNA 2: TGGTGGCTACGACGGGATT
B14: GAAGUCA (DNA:RNA)
RNA: B1 RNA with U26A, C27A, A29U, G30C, C31A
DNA 1: CAATCTGAATTCCGGTCTCCC
DNA 2: TGGTGGCTACGACGGGATT
B15: ACCGGUU (DNA:RNA)
RNA: B1 RNA with G25A, U26C, A29G, G30U, C31U
DNA 1: CAATCTGAATTCCGGTCTCCC
DNA 2: TGGTGGCTACGACGGGATT
B16: AUCUGUG (DNA:RNA)
RNA: B1 RNA with G25A, G28U, A29G, G30U, C31G
DNA 1: CAATCTGAATTCCGGTCTCCC
DNA 2: TGGTGGCTACGACGGGATT
B17: GGCGACU (DNA:RNA)
RNA: B1 RNA with U26G, G30C, C31U
DNA 1: CAATCTGAATTCCGGTCTCCC
DNA 2: TGGTGGCTACGACGGGATT
B18: UGCCUUC (DNA:RNA)
RNA: B1 RNA with G25U, U26G, G28C, A29U, G30U
DNA 1: CAATCTGAATTCCGGTCTCCC
DNA 2: TGGTGGCTACGACGGGATT
B19: GGUGGCA (DNA:RNA)
RNA: B1 RNA with U26G, C27U, A29G, G30C, C31A
DNA 1: CAATCTGAATTCCGGTCTCCC
DNA 2: TGGTGGCTACGACGGGATT
B20: UGUGAAA (DNA:RNA)
RNA: B1 RNA with G25U, U26G, C27U, G30A, C31A
DNA 1: CAATCTGAATTCCGGTCTCCC
DNA 2: TGGTGGCTACGACGGGATT
B21: CCGGGAU (DNA:RNA)
RNA: B1 RNA with G25C, U26C, C27G, A29G, G30A, C31U
DNA 1: CAATCTGAATTCCGGTCTCCC
DNA 2: TGGTGGCTACGACGGGATT
B22: AUCCGAG (DNA:RNA)
RNA: B1 RNA with G25A, G28C, A29G, G30A, C31G
DNA 1: CAATCTGAATTCCGGTCTCCC
DNA 2: TGGTGGCTACGACGGGATT
B23: GCUGAUC (DNA:RNA)
RNA: B1 RNA with U26C, C27U, G30U
DNA 1: CAATCTGAATTCCGGTCTCCC
DNA 2: TGGTGGCTACGACGGGATT
B24: AUGUGGA (DNA:RNA)
RNA: B1 RNA with G25A, C27G, G28U, A29G, C31A
DNA 1: CAATCTGAATTCCGGTCTCCC
DNA 2: TGGTGGCTACGACGGGATT
B25: CUGGUCU (DNA:RNA)
RNA: B1 RNA with G25C, C27G, A29U, G30C, C31U
DNA 1: CAATCTGAATTCCGGTCTCCC
DNA 2: TGGTGGCTACGACGGGATT
B26: UCGUCCG (DNA:RNA)
RNA: GGGAGACCGGAAUUCAGAUUGUCCUCGUCCGUUAAAUCCCGUCGUAGCCACCA
DNA 1: CAATCTGAATTCCGGTCTCCC
DNA 2: TGGTGGCTACGACGGGATT
B27: ACGUUAG (DNA:RNA)
RNA: B26 RNA with U25A, C29U, C30A
DNA 1: CAATCTGAATTCCGGTCTCCC
DNA 2: TGGTGGCTACGACGGGATT
B28: CGUAAAG (DNA:RNA)
RNA: B1 RNA with G25C, U26G, C27U, G28A, G30A, C31G
DNA 1: CAATCTGAATTCCGGTCTCCC
DNA 2: TGGTGGCTACGACGGGATT
B29: CCGCCCG (DNA:RNA)
RNA: B26 RNA with U25C, U28C
DNA 1: CAATCTGAATTCCGGTCTCCC
DNA 2: TGGTGGCTACGACGGGATT
B30: UGCUGCU (DNA:RNA)
RNA: B26 RNA with C26G, G27C, C29G, G31U
DNA 1: CAATCTGAATTCCGGTCTCCC
DNA 2: TGGTGGCTACGACGGGATT
B31: UCGGCCA (DNA:RNA)
RNA: B26 RNA with U28G, G31A
DNA 1: CAATCTGAATTCCGGTCTCCC
DNA 2: TGGTGGCTACGACGGGATT

Molecular target: T1, RBFOX1 RRM
Test: EMSA; HiTS-Eq, 1 nM pool, 10 min; buffer printed only for the single-RNA assays: 10 mM Tris pH 7.5, 150 mM NaCl, 3.4 mM EDTA, 0.001% NP-40, 30 C
Details: tags: His6 N-terminal (pET28a); label: 5' 32P
Method in brief: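 These values rest on relative association constants, computed from read-count changes of each RNA species versus the control reaction and normalised to the cognate motif. Reads came from free RNA recovered by 8% native PAGE after purified RbFox RRM (wild type or mutant) at increasing concentrations was equilibrated for 10 min in 50 µL with 1 nM of a 5′-radiolabelled pool with 7 randomized nucleotides and DNA-annealed flanks.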

First: B1
Second: B2
The binding signal of the first is lower: 0.015 KA relative to UGCAUGU for the first, 0.0222 KA relative to UGCAUGU for the second.

First: B3
Second: B4
The binding signal of the first is higher: 0.0176 KA relative to UGCAUGU for the first, 0.00266 KA relative to UGCAUGU for the second.

First: B5
Second: B6
The binding signal of the first is higher: 0.0115 KA relative to UGCAUGU for the first, 0.00208 KA relative to UGCAUGU for the second.

Compared with B7, B8 is lower in binding signal: 0.033 KA relative to UGCAUGU for the first, 0.00503 KA relative to UGCAUGU for the second.

Compared with B9, B10 is higher in binding signal: 0.0137 KA relative to UGCAUGU for the first, 0.0153 KA relative to UGCAUGU for the second.

First: B11
Second: B12
The binding signal of the first is lower: 0.0111 KA relative to UGCAUGU for the first, 0.0123 KA relative to UGCAUGU for the second.

First: B13
Second: B14
The binding signal of the first is higher: 0.0194 KA relative to UGCAUGU for the first, 0.00633 KA relative to UGCAUGU for the second.

Compared with B15, B16 is higher in binding signal: 0.00787 KA relative to UGCAUGU for the first, 0.0171 KA relative to UGCAUGU for the second.

Compared with B17, B18 is higher in binding signal: 0.0113 KA relative to UGCAUGU for the first, 0.0226 KA relative to UGCAUGU for the second.

Compared with B19, B20 is lower in binding signal: 0.016 KA relative to UGCAUGU for the first, 0.0152 KA relative to UGCAUGU for the second.

Compared with B21, B22 is lower in binding signal: 0.0168 KA relative to UGCAUGU for the first, 0.00535 KA relative to UGCAUGU for the second.

First: B23
Second: B24
The binding signal of the first is higher: 0.0189 KA relative to UGCAUGU for the first, 0.00591 KA relative to UGCAUGU for the second.

First: B25
Second: B26
The binding signal of the first is higher: 0.0225 KA relative to UGCAUGU for the first, 0.016 KA relative to UGCAUGU for the second.

Compared with B27, B28 is lower in binding signal: 0.00974 KA relative to UGCAUGU for the first, 0.00653 KA relative to UGCAUGU for the second.

First: B29
Second: B30
The binding signal of the first is lower: 0.0135 KA relative to UGCAUGU for the first, 0.0249 KA relative to UGCAUGU for the second.

B31 was tested, and the binding signal was 0.0129 KA relative to UGCAUGU.
